# B1: Myeloid differentiation primary response protein MyD88 (Homo sapiens), Q99836 (parent)
# chain: MAAGGPGAGSAAPVSSTSSLPLAALNMRVRRRLSLFLNVRTQVAADWTALAEEMDFEYLEIRQLETQADPTGRLLDAWQGRPGASVGRLLELLTKLGRDDVLLELGPSIEEDCQKYILKQQQEEAEKPLQVAAVDSSVPRTAELAGITTLDDPLGHMPERFDAFICYCPSDIQFVQEMIRQLEQTNYRLKLCVSDRDVLPGTCVWSIASELIEKRCRRMVVVVSDDYLQSKECDFQTKFALSLSPGAHQKRLIPIKYKAMKKEFPSILRFITVCDYTNPCTKSWFWTRLAKALSLP
# Variants of: B1
# Conditions: with tlr2_human TLR2, O60603
row,Variant,effect of a mutation on the interaction
1,A247W;K250D,decreasing interaction strength

# From IntAct's records for PubMed 29990310
